From the supplement of paper PMC3334620
In all, about 33,000 sequences were measured (“E-score (-0.5 to 0.5)”: median about -0.056, highest 2% from about 0.38 on). The list shows a part of the results.

The sequences below were run against Stb4 (UniProt P50104) (assay: PBM E-score (8-mer binding enrichment) (E-score (-0.5 to 0.5)); higher = stronger / more preferred TF binding; most listed sequences are background and not binding sites). Settings: protein concentration: 200 nM; construct: GST-DNA-binding domain.
Method in brief: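 PURExpress in vitro transcription/translation supplied GST-tagged yeast transcription factors, either full-length or DNA-binding domain. Applied at about 100-200 nM to universal all-10-mer Agilent arrays double-stranded by primer extension, the bound protein was detected with fluorescent anti-GST. E-scores, modified Wilcoxon-Mann-Whitney statistics, were given by the Universal PBM Analysis Suite to ungapped eight-base words pooled with their reverse complements after masliner normalisation.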

Row | Sequence | PBM E-score
1 | CGGGACGC | 0.304
2 | ACCCGATC | 0.333
3 | AAGTGCAG | -0.212
4 | CACCTAGG | -0.179
5 | AATTTGGG | -0.136
6 | ACTGCGAG | -0.261
7 | AGTGCCTA | -0.176
8 | AACTCGAC | -0.00661
9 | AGAGCGCA | -0.281
10 | ATCCCAAT | -0.193
11 | AAGAGGGT | -0.331
12 | AGTCAATC | -0.156
13 | GAGCATTA | -0.133
14 | AGGAACGC | -0.097
15 | CTTTCGGA | 0.432
16 | ATCTCCTA | -0.339
17 | CTGAGCCC | -0.233
18 | CTCTCTAA | -0.259
19 | ACTACACC | 0.0591
20 | CAATAGAA | -0.282
21 | AGGTCTCC | -0.15
22 | ACTACGGG | 0.173
23 | GCCTGAGC | -0.248
24 | ACGTGCAC | -0.119
25 | ATGGGGGG | -0.189

Row | Sequence | PBM E-score
26 | GTGGCAAA | -0.0689
27 | GATCTTAC | 0.133
28 | GATATTAA | 0.228
29 | AGCGAGCG | -0.153
30 | GACACGTC | 0.0446
31 | CTTCAAGA | -0.115
32 | AACTTTAG | -0.159
33 | AGGCGGAC | 0.119
34 | CGACATGC | 0.0348
35 | AGTTACGA | -0.00644
36 | CGAGGCGA | -0.00218
37 | AGCCCTCC | -0.0499
38 | AATACACG | -0.107
39 | GCTGAAGC | 0.0696
40 | AAGCTCAA | -0.297
41 | CTCTCTTC | -0.067
42 | AGTAATTG | -0.131
43 | GTTAAGGA | 0.0018
44 | ACTGGGCT | -0.0497
45 | AGACTGAC | -0.11
46 | CTTGCCTA | -0.286
47 | ATGTATAG | -0.189
48 | ATTGCCTA | -0.143
49 | CGCGTCCC | 0.147
50 | CTGCGTCA | -0.35

Row | Sequence | PBM E-score
51 | CACCGGCA | 0.198
52 | AGTTCGTC | -0.167
53 | AGGCTTCG | 0.206
54 | GATCTTAA | -0.124
55 | ACGCTCCG | 0.204
56 | ACGAGATC | -0.0355
57 | GCACGCGC | -0.0844
58 | CGACCGCA | 0.109
59 | AATGACTA | -0.259
60 | AAGATGAT | -0.317
61 | AGCTGTAG | -0.0425
62 | ATGTGGGG | -0.227
63 | GGTAGAAC | -0.125
64 | GCCCCCAA | -0.429
65 | ACATTGGT | -0.0611
66 | GAGGTGGC | -0.137
67 | ACTATAAG | -0.208
68 | GATTCATA | -0.00878
69 | CAAAGAGG | -0.158
70 | CAATAGCC | -0.0503
71 | CTAGGAGC | -0.0318
72 | AATCGACT | -0.183
73 | CCTAGCAA | -0.197
74 | TGGTTCAA | -0.014
75 | CCTCGCTC | 0.0501

Row | Sequence | PBM E-score
76 | ACGTGACT | -0.27
77 | GACACGAC | -0.247
78 | CTCCTATA | -0.399
79 | ATCATATA | -0.0581
80 | CCACAATC | 0.028
81 | AGTCCGGC | 0.0945
82 | GAACTGAA | 0.0351
83 | GCACTTAC | 0.0807
84 | TAAGGACA | -0.159
85 | CGTGCCTC | 0.0554
86 | CAGGAAGA | -0.132
87 | ACGTCTGA | -0.124
88 | ACATAGAG | -0.166
89 | ACGGACCA | 0.167
90 | ACAATGCT | -0.251
91 | CTGACACC | 0.0587
92 | TGGATTAA | -0.134
93 | CGCTGACA | -0.0536
94 | GGCTTGCA | -0.0343
95 | AGCCGAAA | 0.425
96 | CTCCCGTA | 0.106
97 | GTGCTAAC | 0.0586
98 | AATTTACC | 0.182
99 | GAAAGAAA | 0.071
100 | CAGTGACC | -0.216

Row | Sequence | PBM E-score
101 | CCTGCAAA | -0.27
102 | GCTACTGA | -0.0941
103 | GTAGGGTA | -0.0477
104 | AACGGTAA | 0.104
105 | ACTCCCGA | 0.411
106 | GTAAGCAC | -0.144
107 | TACAAGAA | -0.0733
108 | CCGGGCTA | 0.254
109 | CTAGTCAC | -0.119
110 | CAGGGTAG | -0.151
111 | AGTCTACG | -0.0178
112 | AGCAACAC | -0.0488
113 | GGTCCACC | -0.0103
114 | GTCCAGAC | -0.365
115 | AGCTATCA | -0.17
116 | AATCGTAG | -0.298
117 | CGTCCCAC | -0.0761
118 | CTAAGGCA | -0.154
119 | ACACGCGC | 0.00442
120 | CTCGAATA | 0.0163
121 | GAGTTGCA | -0.0614
122 | CCGCACAA | 0.136
123 | ATGCACCG | 0.133
124 | AAAGAATT | -0.0563
125 | CTGCCCAA | -0.0865

Row | Sequence | PBM E-score
126 | CACAGGTG | -0.266
127 | GTTGACAA | -0.00399
128 | AACTACCC | 0.116
129 | ATACGTGC | -0.02
130 | AAGGTAGA | -0.113
131 | AGATTTAA | -0.0119
132 | ACCCGCTA | 0.151
133 | CGACACCC | 0.107
134 | AGAAGTAA | -0.226
135 | ATTCTGTA | 0.0857
136 | AAATTATG | -0.0977
137 | CATGTCCC | 0.0202
138 | CGCATCTA | 0.0075
139 | AAGTGGTC | -0.00068
140 | CTGCCATC | -0.0272
141 | GAGGTACC | 0.0627
142 | AGTTTGGG | -0.172
143 | AGCGGATC | 0.255
144 | AATCAGTG | -0.0707
145 | AGCAAAAC | -0.119
146 | AATGATGC | 0.0244
147 | CCGTTAAG | 0.0109
148 | GATCAGCC | -0.0153
149 | TGCAATAA | -0.179
150 | ATTGACGG | 0.0795

Row | Sequence | PBM E-score
151 | CGGTAGAA | 0.19
152 | CGGATTGA | 0.281
153 | AACGTGAC | -0.104
154 | ATGCTTTA | -0.0981
155 | TCCTGCGA | 0.0562
156 | GGCGCGCA | 0.0402
157 | CGGAGGTA | 0.237
158 | AGCTTTTC | 0.0828
159 | AGAGGTCG | -0.0167
160 | AGGTTACG | -0.164
161 | CTTGTAAC | -0.0834
162 | CTCGAGTA | -0.233
163 | GCCCTTAC | -0.0314
164 | ACCACCAG | -0.0538
165 | CTATAAGA | -0.272
166 | GCGGGCAC | 0.0927
167 | CAGGGGCC | -0.188
168 | ACTCGAGA | -0.0526
169 | TCCGTCGA | 0.244
170 | GTCATCGA | -0.305
171 | CTCCTCAG | -0.0599
172 | TCGAAACA | 0.0385
